Measured values published in publication PMC5895051.
These are yes or no findings as the source states them, for the method shown. Binding seen in cells or lysates may run through a third protein. Some binding calls cover weakened binding; strength is not graded here.

Sequences of proteins named here, by UniProt entry; tags and fusion partners are left off.
UniProt O75800: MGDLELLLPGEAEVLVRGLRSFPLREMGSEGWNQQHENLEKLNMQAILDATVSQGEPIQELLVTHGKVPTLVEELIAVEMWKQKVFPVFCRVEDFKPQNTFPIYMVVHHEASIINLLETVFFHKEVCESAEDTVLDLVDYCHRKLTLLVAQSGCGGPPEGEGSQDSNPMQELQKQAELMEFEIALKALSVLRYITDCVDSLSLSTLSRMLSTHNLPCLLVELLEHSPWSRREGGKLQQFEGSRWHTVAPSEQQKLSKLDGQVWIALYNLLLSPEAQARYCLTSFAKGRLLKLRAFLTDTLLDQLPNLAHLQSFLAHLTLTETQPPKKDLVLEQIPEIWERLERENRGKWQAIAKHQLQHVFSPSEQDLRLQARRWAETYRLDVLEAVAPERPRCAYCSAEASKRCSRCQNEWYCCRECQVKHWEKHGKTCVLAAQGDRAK
UniProt P11142: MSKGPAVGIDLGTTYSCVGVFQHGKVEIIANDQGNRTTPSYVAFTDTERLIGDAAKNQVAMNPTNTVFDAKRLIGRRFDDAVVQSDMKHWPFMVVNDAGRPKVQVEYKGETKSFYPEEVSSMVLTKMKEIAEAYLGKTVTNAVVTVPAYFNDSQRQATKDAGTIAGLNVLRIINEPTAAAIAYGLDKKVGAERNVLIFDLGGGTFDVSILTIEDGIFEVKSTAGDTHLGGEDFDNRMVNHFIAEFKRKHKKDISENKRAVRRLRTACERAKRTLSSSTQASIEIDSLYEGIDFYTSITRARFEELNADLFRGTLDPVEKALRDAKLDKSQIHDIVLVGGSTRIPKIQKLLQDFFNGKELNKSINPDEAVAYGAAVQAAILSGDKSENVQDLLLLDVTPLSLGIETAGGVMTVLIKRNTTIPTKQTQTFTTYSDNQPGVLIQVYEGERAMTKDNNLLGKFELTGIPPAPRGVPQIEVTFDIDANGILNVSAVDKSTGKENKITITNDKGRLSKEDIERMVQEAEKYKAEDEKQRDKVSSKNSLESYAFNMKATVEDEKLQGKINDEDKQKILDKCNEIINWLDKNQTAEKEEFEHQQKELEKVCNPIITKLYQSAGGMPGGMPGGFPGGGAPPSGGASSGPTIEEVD
UniProt Q9WTM5: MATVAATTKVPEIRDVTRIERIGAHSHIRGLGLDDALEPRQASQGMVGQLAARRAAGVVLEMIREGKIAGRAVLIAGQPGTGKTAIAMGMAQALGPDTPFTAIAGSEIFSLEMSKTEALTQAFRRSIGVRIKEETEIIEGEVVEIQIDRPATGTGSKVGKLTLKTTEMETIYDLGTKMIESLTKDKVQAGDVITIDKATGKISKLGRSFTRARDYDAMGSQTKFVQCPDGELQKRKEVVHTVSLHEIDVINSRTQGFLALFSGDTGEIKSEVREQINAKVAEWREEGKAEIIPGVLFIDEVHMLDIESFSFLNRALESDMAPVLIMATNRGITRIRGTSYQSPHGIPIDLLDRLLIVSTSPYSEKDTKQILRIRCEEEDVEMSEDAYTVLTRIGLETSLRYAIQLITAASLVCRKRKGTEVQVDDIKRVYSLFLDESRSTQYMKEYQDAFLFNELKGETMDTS

Columns and labels:
[1] = biological target: FLAG-tagged ZMYND10 (zinc finger MYND-type-containing 10) (UniProt O75800); assay: co-IP; FLAG-ZMYND10 alone transfected into HEK 293T cells; immunoprecipitated with anti-FLAG antibodies, blotted with anti-HSC70 antibodies (endogenous partner)
[2] = biological target: FLAG-tagged ZMYND10 (zinc finger MYND-type-containing 10) (UniProt O75800); assay: co-IP; constructs cotransfected into HEK 293T cells; immunoprecipitated with anti-FLAG M2 or anti-c-Myc affinity gels, immunoblot
[3] = biological target: GST-ZMYND10, full-length protein (UniProt O75800); assay: pull-down; purified GST-ZMYND10 (full length) or GST-MYND as bait; lysates from mTECs; immunoblot; only the target purified

Substance: HSC70 (heat shock cognate protein 70), endogenous (from UniProt P11142 1-646)
- binding [1]: binds

Substance: Myc-HSC70 (heat shock cognate protein 70) (from UniProt P11142 1-646)
- binding [2]: binds

Substance: REPTIN, endogenous in mouse tracheal epithelial cells (from UniProt Q9WTM5 1-463)
- binding [3]: binds
